Measurements taken from the supplement of paper PMC10681739.
± gives the standard deviation of the averaged measurements. In all, about 4,000 sequences were measured (“arbitrary fluorescence units”: median about 830, highest 2% from about 6,500 on). Most of the strongest results are missing from this list.

These sequences were tested against RUNX1 (UniProt Q01196) (assay: RUNX1 binding intensity (PBM fluorescence), RUNX1 alone (arbitrary fluorescence units); higher = stronger binding). Details: RUNX1 concentration 2 nM; ETS1 concentration 0 nM.
Procedure: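 gcPBM on 36-bp genomic-derived probes (partner site mutated) containing one RUNX1 site and no ETS1 site. Recombinant human RUNX1 (2 nM) was incubated alone or with ETS1 (25 nM) and detected by anti-RUNX1 antibody fluorescence. Values are medians over 4 replicate spots (not normalised). The probes sit in constant array flanks that are not printed.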
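Note: Full-length recombinant human RUNX1 bound to double-stranded DNA microarray spots, detected with an Alexa488-labelled secondary antibody after the anti-RUNX1 primary, read as scanned spot fluorescence.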

Sequence of UniProt Q01196 (Q01196 whole entry): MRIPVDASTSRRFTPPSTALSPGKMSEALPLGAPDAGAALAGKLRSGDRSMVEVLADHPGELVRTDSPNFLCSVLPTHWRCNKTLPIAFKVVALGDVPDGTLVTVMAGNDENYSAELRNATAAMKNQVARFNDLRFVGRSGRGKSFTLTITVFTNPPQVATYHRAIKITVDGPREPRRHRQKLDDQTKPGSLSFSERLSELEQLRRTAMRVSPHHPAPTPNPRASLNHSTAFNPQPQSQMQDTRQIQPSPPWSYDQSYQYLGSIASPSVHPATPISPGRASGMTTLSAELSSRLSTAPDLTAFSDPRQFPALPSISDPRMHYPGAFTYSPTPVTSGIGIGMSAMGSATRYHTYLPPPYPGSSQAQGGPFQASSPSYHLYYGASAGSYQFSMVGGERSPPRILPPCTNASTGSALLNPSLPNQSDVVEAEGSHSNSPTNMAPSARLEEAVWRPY

Sequence | RUNX1 binding intensity
GCTGCCAGGTGGCCACAGCGCACAGTAAACGAGACT | 764
ACAGCAAGTGAGGCTGTGAGGAGTTTGTGGTGTGTA | 829
CCATTCTTACGGTGGAGATGGCTGCGGCCGTGGCGG | 815
GTTGGGTGGGCAAGTGGATGGTGGTTTTGGCAGAGG | 1280
TGCAAGAAGAAGCTGGGGTTTGTGGTTCATGTTTTG | 794
AGCTGTGGCTTCAGTGTTTCTGATCTCCTCTTGTTG | 874
GAGACACCGCATGGGTAGAGAAACCTCCGTAATGTT | 751
AAGGTCGCTGCGGGGATGGGGGCCGGGAATCTCCTC | 878
CTTATCTTCTTCATGTGAGCTGTGTGTGGGTGGCTC | 839
GGCGCCCGCAGCCTCCAGGCATCGCGCCCGGCTGGA | 816
GGAACGGAGGCGCAAGGGGCCCTGCGGCGACGACGT | 575
GTACGCTGGGCCGCAGTCCCTGCCGGGAATTGTAGT | 672
CCCCTTGCCGTTCTCCGAAAGTGCGCGGGTTGGAGC | 868
GGCACTGGCTTTCAGGGGCCTCTGTGGGCTGGACAG | 653
AATATGTGGGCTGAGGCGATGGTTGCCTGGGGTGCT | 776
CCCCGCCTCCTCCGCTTCTGTGGTCTGATCTGCCTG | 1340
CCAGCCCAGGCAACAAGGAACCCCAAAGCCACAGGA | 822
GTGTCCTGTGGTCTCCTCTGCGCCACCTCCCTGCCT | 1280
GCCGTCAGCTGGATCCGTGCGGTCCGCGAGGACCCG | 836
TGCTTCATCTGTGGTGAGGGCTGCTTGCTGCTCTGT | 756
CCTGGAGCCTGTGGGCTTGGCTGCTTCAGCTAGCAG | 690
AGCAGGCTATGCCGGGTTTGTGGCTGCTTGGCTCCA | 697
TGACGGCTGCACGGGCGCAGCGGCGGCCCGCAGGGG | 736
CACCCTGGCCCCACAGCCCCAGTAAAACATTCCTCA | 1280
GCCCGCCCCGGGAGTGCAAACTGTGTGGTCTGGCAG | 703

Sequence | RUNX1 binding intensity
GAGACATGTGGTTACATATTTAACGGCATCATGCCA | 1120
AGATGGGCATGCTGTGAGCCTGTGGTTCTCAGCATT | 727
CTGCACTTTCGGTCAGGCGGTCGGGCTGCGGGGCCC | 734
CATCAAGTATCTCCTCACGCAAGCAACCGCATCCAT | 1230
TTCGCGTGGTCACTTTCGCGTCCATTCGGGGCTTCT | 761
CCTTGTGGGAGCTGTAGTTCTGCAGGCGCGGAGGCC | 678
GTAGCGCTGCGGGTTTTTGCGACACCATGCGCGCCT | 922
TATTGTGTACCTCCCCTTCATGTTGTGGTTGGCTTT | 919
AGTTGTGGGCTCACCTGGAGGAGTTGCCTGGAGTGG | 771
CTCCCGGGCCGCAGCCGCGCGTTGCCGGCGCGCTCC | 826
CCCCACATACGGGGGCCGGGGCCGGGCTGTGGGCTT | 755
GCCCCCGTAAGCTGTCGCCCCGTGCGGTGTGTGCTG | 844
AGACCCGGCTATGCGCCGGGGACCCCCAGACCGCGC | 759
CGGTGGCTTACGGCCCATGGCGGTGGTTGGTGACTC | 746
GAAGTCACACCCTGTCTGTTGCGGCAGGGCACAGAG | 760
CCCAGGGCAACCGCTTGCCTCCCGCGGAGGTGCATC | 769
ACTTTGTCAGTGTGGTTTTCACATGCTGTCCTAGCT | 1190
ACTAGCGTCACCGCGCCAAGGTTCGGGTCCGGGTCT | 706
CGACTGGAACCACTCTGAGGCGCTGCCGCAGACACC | 1040
TAGACGCGGTTTTGGACTGCTATCTCCGTAAAAGTC | 884
CAGCAACATGCCCGCAGAGAATTCTTCTGGAGGCGG | 835
CTTTCTTGTGGGCGATGATACGTCCTACATTCCCCC | 987
CCCGCTGCGGCCTCCACAGAGCAGCAAGCAGCCCTC | 886
CCTTGCTGCATGATGCTCTAACCACAAGCCCAGGAG | 6030
TCGGCTGCACGAAAGGCACGCGGTCTCCCTCTTGGC | 762

Sequence | RUNX1 binding intensity
TGAGTCATTGCCTGGGTGGGGGCCACAAGACCAGGT | 708
AAAGAGGCAATCACATACCCGAAAACCACATGCACA | 1030
CTGCCTGCCCCACAGCATGCAGGGACAGGCAGTGGG | 633
CTCCCGTCCCCGCAGAGTGCAAGGCTGTGAACAAGG | 842
GGAAAGCGCAAGAAAAAAGCAAGATGGGACCGCAAG | 766
GCTTTTTCTTGGTGGTTGGGCAGGGAGCCTCTAGAG | 999
GTAGAGACAGCAAATTATGTTGGTTTTCTTGCAGAA | 702
GACTCTTCAGGCCCAGAGCTTTCGGAGTGCGGTTGC | 775
AAGGCACCAACCACTTCGGAGGAGACGGGGGGTGGT | 857
TCGCATATGGCTGTGGGAGGAGGAATGGAGGCCCAG | 736
GCTCCCCTGACCACACCAGTTCCTCAGGGAGCCTCT | 1020
CGCCTACCCCTTGCTGAGGCGGGGGCGGTTTCTCGA | 1740
GCTGGGGGGCTCCCGCAGAGGCAGGGAACTGGCGGG | 730
TCATAGCCGGCAGGAATGGGTTTTGTGGCTTTGTGC | 847
AAGAGTCGCGGTTTTCCACCAGCAAGTTGTCCAGTC | 2850
AGCCAGCTGTGGTGAAGGGAGGCAGCCTGAGAACTG | 785
CGGTGCACCACAGCTACGGCACAGCATGTGGAGAAC | 769
GTGCCACTGAGAGCAAGGGGGCAACCACAGTGGGAG | 867
ACCACCCCCACAGACAAACTCACCTCCTCTCCCTAG | 1500
GCCCCTAAACCGAATGCGGCAGCCACCGCGGACCCC | 1100
TTGTGGTTTGTCAGCCCCAGACAGGCACGAAACGCT | 844
CCAACACAGCAAATAATTTGAAACCACAATCAGAAA | 1420
GCGCAAAGCCGTAAGGAGGGGTTTGCGGCTGGGGAG | 748
ACACAGAAAGGACGCACGCTCCCGCCCCAACCACAT | 955
TGTCGGGCTGCGGGGGCGGGGAGGTGGCGGCTGAAG | 967

Sequence | RUNX1 binding intensity
AAGGAACTGTGGTAAGAGAAGGCAGTGCTATCCACT | 766
TGGGACTGTGGCCACCACCACCTCCTCTCTGCTCTG | 884
CTACATGTCCCACAGGCGCCCGGGCGGTTTTCGAAC | 828
CTCCCGCCACCGCGCGCCCGCGCTCCGAAAAGGCGG | 831
CCAGCCGTAAGCCCCGCCCCCTAGAGGCACCGCGGA | 882
TGATGTGGTTTTGAAAGTGGAAGAGGGCAGGCAGTG | 1990
GAGCGCCCACCTCCTGTTTACCACCCAGCCTCTTCG | 1030
ACGGTTTGTGGTTCCTCCTTAGGAGGCCAGATATGG | 1290
TTACTGCCTGAGGGTGCACAGGCTGTGGTCGTCTAT | 694
CCGGGACCGCGGCTTGGGCTCACGGCCACTGCCGAC | 703
CCCAGCCGCATGTGCAGAGTGGGGACGAAGAGGAGG | 749
TTCCAGCGGAGGTTGTCTCTTCGCCGCCGCCGCAGC | 740
CTAAACCTGAAGCCGCCCCTCTGACCGCTCTAAAAC | 979
GCCGCGGTGGCTGCTATTTCTGCCGCTTTCTGTTCC | 804
GTTGCCTTTCTGCGGTGGAGGAGGAGGTGTTGGATT | 1400
TGCGTAGCCGCAGCCAACGCGCCTTTCGGGTAGCCA | 842
TGATAGTGGGTTTGGGGTGATGCAAACAGAAAGAAA | 841
GGCCGGCTTACGGGGCGGGTGGAAAGGAGCCACAAG | 727
CGCCTCATTGCCTGTGCAACTGCGGTAAAAATAGGA | 1420
TTAACCACTGTTCTCTAAATACTGTACGTCCTTTAT | 1100
ACTAGAAGCGAAAGTAGTTGTGGGCGCCTTTGCAAC | 705
CCCGCCTCCGCGTTTTACTCGGTGCCCGCAGCGCCG | 991
CAGGGGGCCCCACATGCCGCTCTTGCTGCCCAGGTC | 798
CTTGGCTTATTGTGGGAGCCACTTGCCTGGCTTTCA | 742
GCACTACATTGCCCAGCTTTCCTCGCGGTAAAGAGA | 883

Sequence | RUNX1 binding intensity
AGCTGCGGTGGGCTCCACCCAGTTTGAACTTGCTGG | 1100
AGTGTCCGCCGCCTCCTGGTTGCGGGTCAGCGCCCA | 753
CTAACTGTGGGTGTTGTTACACACGATGATTCTTAG | 733
CAGGCAGGGTGTTGACTCAGCTGCCAAGTGGTTTTG | 779
TCTCTATGGTTGCCGTTGGGTGTGTGGTTTTTTTGT | 930
CCCACTGCCTGTCCCTGCATGCTGTGGGGCAGGCAG | 713
ACCCTACCTCCGTTGCTGTGTTGCGGAGGTGACCTA | 790
CTCTACCGCAGGCTGGCTAATCTTCGGCAACAAACA | 1340
AGGCCTGGCCCCAGGACGTGGGCGGTTGCCGGGGCG | 681
GGCCAAGGAGGCGGCCCCCTAAAACCGCTCCAGGGA | 746 ± 71
TAGAACGTCCTCAGACCACCGCCGCCGCAGTCTGCA | 818
CCCTTTTCCTTACGGCCTGTGCGGCTTATAAGATCT | 1220
GGGGCTCCGCAGGCAGTAGGGCTCCCACAACTTTGC | 696
TTGGCCTCGCCGGGACCCCTTGCACCGCGGACACAG | 776
GGTCACTGCGGCCCAGAGGCCCGCTCTTCAGCTGAG | 756
CCTCCCGACCTGAAGCCCCGCCACAGAGCGGGTTGT | 988
AGAGTGTGGCCGCAGAACTCACCTCCTTGTTTACAT | 925
ATAGACGCGTGGTTTTGTTTTTAAACATGCTGAGCA | 774
GAGTGGCTGTGGTCTCGGGCGGCTGGGGAGAAGAGA | 863
TCTGGGAGATGGAGTTCACAGCGCTGCGGGGCCGGA | 674
AATGCCGAATATTGGTTCTGGTAAGCCACAAAAAAG | 871
ACCCCACCTACCGCCACCTCATTCTGAGTCTGAGAG | 1300
GGGGTGCTGGGAACTGGAGCGAGAGGTGGTTTCCAG | 739
TCCGAAAGTGGCACTGATGGGCGCCTGCGGCGGGGG | 720
CTGGTAGAAAAGGCAGCAGGTTGTGGTGAGCATTTA | 777
